Assay results published in PMC9433428.
These are yes or no findings as the source states them, for the method shown. Binding seen in cells or lysates may run through a third protein. Some entries that bind do so weakly or less than the wild type.

Sequences of proteins named here, by UniProt entry; tags and fusion partners are left off. A change or cut given only in a name is not applied to a line headed by its entry.
UniProt P28360: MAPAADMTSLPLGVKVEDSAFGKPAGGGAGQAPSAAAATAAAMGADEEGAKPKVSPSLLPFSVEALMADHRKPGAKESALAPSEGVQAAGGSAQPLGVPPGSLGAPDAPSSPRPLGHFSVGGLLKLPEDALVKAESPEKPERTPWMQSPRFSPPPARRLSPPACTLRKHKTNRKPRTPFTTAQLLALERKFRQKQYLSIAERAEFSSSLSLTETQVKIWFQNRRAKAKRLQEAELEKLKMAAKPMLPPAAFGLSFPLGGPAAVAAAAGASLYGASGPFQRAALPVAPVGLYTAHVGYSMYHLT
UniProt P55771: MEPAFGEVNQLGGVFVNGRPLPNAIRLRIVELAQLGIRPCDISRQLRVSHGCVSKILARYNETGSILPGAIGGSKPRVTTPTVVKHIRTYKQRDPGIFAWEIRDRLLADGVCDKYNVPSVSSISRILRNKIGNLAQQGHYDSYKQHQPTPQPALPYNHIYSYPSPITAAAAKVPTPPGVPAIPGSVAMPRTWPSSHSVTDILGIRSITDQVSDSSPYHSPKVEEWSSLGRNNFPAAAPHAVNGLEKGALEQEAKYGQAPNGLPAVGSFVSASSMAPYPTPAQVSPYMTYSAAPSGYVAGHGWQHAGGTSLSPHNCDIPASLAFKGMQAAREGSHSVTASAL

B1: Endogenous USP49 (ubiquitin-specific protease 49) (enzyme, UniProt Q70CQ1 1-688)
chain: MDRCKHVGRLRLAQDHSILNPQKWCCLECATTESVWACLKCSHVACGRYIEDHALKHFEETGHPLAMEVRDLYVFCYLCKDYVLNDNPEGDLKLLRSSLLAVRGQKQDTPVRRGRTLRSMASGEDVVLPQRAPQGQPQMLTALWYRRQRLLARTLRLWFEKSSRGQAKLEQRRQEEALERKKEEARRRRREVKRRLLEELASTPPRKSARLLLHTPRDAGPAASRPAALPTSRRVPAATLKLRRQPAMAPGVTGLRNLGNTCYMNSILQVLSHLQKFRECFLNLDPSKTEHLFPKATNGKTQLSGKPTNSSATELSLRNDRAEACEREGFCWNGRASISRSLELIQNKEPSSKHISLCRELHTLFRVMWSGKWALVSPFAMLHSVWSLIPAFRGYDQQDAQEFLCELLHKVQQELESEGTTRRILIPFSQRKLTKQVLKVVNTIFHGQLLSQVTCISCNYKSNTIEPFWDLSLEFPERYHCIEKGFVPLNQTECLLTEMLAKFTETEALEGRIYACDQCNSKRRKSNPKPLVLSEARKQLMIYRLPQVLRLHLKRFRWSGRNHREKIGVHVVFDQVLTMEPYCCRDMLSSLDKETFAYDLSAVVMHHGKGFGSGHYTAYCYNTEGGFWVHCNDSKLNVCSVEEVCKTQAYILFYTQRTVQGNARISETHLQAQVQSSNNDEGRPQTFS
B2: N-terminus USP49 (1-250 aa) encoding the ZnF-UBP domain (domain or fragment, UniProt Q70CQ1 1-250)
chain: MDRCKHVGRLRLAQDHSILNPQKWCCLECATTESVWACLKCSHVACGRYIEDHALKHFEETGHPLAMEVRDLYVFCYLCKDYVLNDNPEGDLKLLRSSLLAVRGQKQDTPVRRGRTLRSMASGEDVVLPQRAPQGQPQMLTALWYRRQRLLARTLRLWFEKSSRGQAKLEQRRQEEALERKKEEARRRRREVKRRLLEELASTPPRKSARLLLHTPRDAGPAASRPAALPTSRRVPAATLKLRRQPAMAP

Columns and labels:
[1] = biological target: Endogenous MSX1 (Msh Homeobox 1 protein) (human (endogenous in hDPSCs)) (UniProt P28360); experiment: proximity ligation; Duolink in situ PLA in fixed hDPSCs with primary antibodies to USP49, PAX9 and MSX1; endogenous proteins
[2] = biological target: Endogenous PAX9 (paired box gene 9 protein) (human (endogenous in hDPSCs)) (UniProt P55771); experiment: as above
[3] = biological target: Endogenous MSX1 (Msh Homeobox 1 protein) (human (endogenous in hDPSCs)) (UniProt P28360); experiment: co-IP; endogenous proteins; hDPSC lysates (2-3 mg) immunoprecipitated with USP49, PAX9 or MSX1 antibodies at 4 °C overnight, protein agarose beads; lysis buffer 25 mM Tris-HCl pH 7.4, 150 mM NaCl, 1 mM EDTA, 1% NP-40, 5% glycerol
[4] = biological target: Endogenous PAX9 (paired box gene 9 protein) (human (endogenous in hDPSCs)) (UniProt P55771); experiment: as above
[5] = biological target: MSX1 (as used in the co-immunoprecipitation with USP49 variants, Fig. 5C) (human) (UniProt P28360); experiment: co-IP; USP49-FL, USP49-N (1-250) and USP49-C (251-640) with PAX9 or MSX1; IP and immunoblotting with the indicated antibodies; cells and direction of the IP not stated
[6] = biological target: PAX9 (as used in the co-immunoprecipitation with USP49 variants, Fig. 5B) (human) (UniProt P55771); experiment: as above

Binder | binding [1] | binding [2] | binding [3] | binding [4] | binding [5] | binding [6]
B1 | binds | binds | binds | binds | – | –
B2 | – | – | – | – | no binding | no binding
